Structures are written as SMILES. The campaign covered roughly 310,000 compounds. About 2,200 (0.71%) showed an effect of 50% or more. Effects have a minus sign here. The list shows a part of the results.

This experiment deals with human ether-à-go-go-related gene (hERG) potassium channel (human, UniProt Q12809). Kind of experiment: primary screen, population patch clamp on CHO cells stably expressing hERG.
Sequence of human ether-à-go-go-related gene (hERG) potassium channel (Q12809 whole entry, looked up): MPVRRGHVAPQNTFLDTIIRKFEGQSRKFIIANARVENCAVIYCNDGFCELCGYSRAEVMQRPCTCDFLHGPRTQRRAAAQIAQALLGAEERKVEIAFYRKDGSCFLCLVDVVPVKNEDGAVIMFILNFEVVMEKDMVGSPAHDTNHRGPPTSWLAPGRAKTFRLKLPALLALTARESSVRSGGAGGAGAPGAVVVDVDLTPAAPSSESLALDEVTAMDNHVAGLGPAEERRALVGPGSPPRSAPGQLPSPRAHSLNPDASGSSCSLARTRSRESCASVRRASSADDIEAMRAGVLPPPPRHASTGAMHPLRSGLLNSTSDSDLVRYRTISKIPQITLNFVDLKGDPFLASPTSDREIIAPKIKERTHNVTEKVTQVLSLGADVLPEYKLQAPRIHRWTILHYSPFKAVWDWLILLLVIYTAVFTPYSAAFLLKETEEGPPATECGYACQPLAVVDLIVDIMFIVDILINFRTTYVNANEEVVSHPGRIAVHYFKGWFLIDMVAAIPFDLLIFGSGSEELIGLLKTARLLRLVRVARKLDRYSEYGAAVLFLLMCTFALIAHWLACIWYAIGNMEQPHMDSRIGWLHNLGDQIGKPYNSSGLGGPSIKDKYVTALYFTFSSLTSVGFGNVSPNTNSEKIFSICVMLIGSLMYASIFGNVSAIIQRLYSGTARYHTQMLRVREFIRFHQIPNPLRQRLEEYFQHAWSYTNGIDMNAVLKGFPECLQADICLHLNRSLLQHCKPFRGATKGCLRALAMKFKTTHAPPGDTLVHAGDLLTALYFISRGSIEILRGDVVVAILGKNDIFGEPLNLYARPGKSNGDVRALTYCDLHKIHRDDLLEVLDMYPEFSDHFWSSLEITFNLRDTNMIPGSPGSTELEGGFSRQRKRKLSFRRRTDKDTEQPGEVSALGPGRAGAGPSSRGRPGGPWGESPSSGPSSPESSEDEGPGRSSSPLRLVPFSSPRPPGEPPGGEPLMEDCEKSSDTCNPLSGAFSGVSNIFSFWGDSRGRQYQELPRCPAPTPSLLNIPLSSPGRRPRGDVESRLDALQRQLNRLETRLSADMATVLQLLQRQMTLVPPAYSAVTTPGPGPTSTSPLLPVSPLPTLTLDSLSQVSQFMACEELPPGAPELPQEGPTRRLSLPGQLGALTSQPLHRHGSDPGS
Turning to `O=C(CN1C(=O)/C(=C\c2cccc(Br)c2)Oc2ccccc21)NCC1CCCO1` (stereo not shown), the “hERG current change (%, negative = inhibition) at 1uM” value worked out at 17.8%.
To `C=CCN1CN(Cc2ccco2)CNC1=S` belongs -3.72%.
To `CCOC(=O)N1CCC(NC(=O)Cc2ccccc2)CC1` belongs 15.5%; to `CC(=O)c1ccc(NC(=O)COC(=O)c2ccc(F)cc2F)cc1`, 14.1%; to `Cc1ccc(C(=O)c2ccc(C(F)(F)F)cc2)cc1`, 6.9%.
To `COC(=O)c1cc2c(cc1Cl)N1CCCCCC1=NS2(=O)=O` belongs 10%; to `O=C(Nc1ccccc1N1CCCCC1)c1ccccc1F`, -5.76%.
As to `CCCCCCOc1ccc(N2C(=O)CC(N(CCc3ccc(S(N)(=O)=O)cc3)C(C)=O)C2=O)cc1` (stereo not shown), the “hERG current change (%, negative = inhibition) at 1uM” value was determined as 16.7%.
To `COc1ccc2[nH]c(=O)c(CNc3cc(C)ccc3C)cc2c1` belongs 7.72%.
As for `O=C(CSc1ncccn1)N/N=C/c1cccc(OC2CSC2)c1`, the “hERG current change (%, negative = inhibition) at 1uM” value is 13.5%.
Then `COc1ccc(/C=C2/CCc3ccccc3C2=O)cc1CN1CCOCC1`, with -6.64%; and `CSc1nnc(-c2ccc(NC(=O)CCc3ccccc3)cc2)n1C`, with 8.84%.
To `CCC1Oc2ccccc2N(CC(=O)NC2CC2)C1=O` (stereo not shown) belongs 15.5%; to `COc1ccc(CCNC(=O)C2CCN(S(=O)(=O)N3CCCCC3)CC2)cc1OC`, 4.52%.
For `O=C(NCC(c1ccco1)N1CCCCC1)C(c1ccccc1)c1ccccc1` (stereo not shown), the “hERG current change (%, negative = inhibition) at 1uM” value is -4.9%.
Regarding `CCCc1cc(=O)oc2cc3occ(C)c3cc12`, the “hERG current change (%, negative = inhibition) at 1uM” value is reported as 6.79%.
Then `C[C@H](NC(=O)[C@@H]1CSC2c3ccccc3C(=O)N21)C(=O)NCCc1ccc(F)cc1` (stereo partly shown), with 14.8%; and `CCOC1OC(=O)C(Cl)=C1Nc1cc(C)ccc1C` (stereo not shown), with 14.3%.
With `O=C(CN(C(=O)c1csnn1)c1ccc(F)c(Cl)c1)NC1CCCC1`, the “hERG current change (%, negative = inhibition) at 1uM” value is 6.49%.
Then `COC(=O)c1sccc1NC(=O)CSCC(=O)O`, with 8.36%; and `CCN(CC)S(=O)(=O)c1cccc(-c2n[nH]c(=S)n2Cc2ccccc2)c1`, with 12.4%.
To `O=C(Cc1ccccc1)NCCc1cnc[nH]1` belongs 10.2%; to `Cc1cc(C)n2nc(SCC(=O)N(CCC#N)c3ccccc3F)nc2n1`, 8.64%; to `O=C(O)CC12C[C@H]3C[C@@H](C1)CC(n1ncc(N4CCN(c5ccccc5)CC4)c(Cl)c1=O)(C3)C2`, 10.8%.
Regarding `Cc1cccc(NC(=O)Nc2ccc3c(c2)OCO3)n1`, the “hERG current change (%, negative = inhibition) at 1uM” value was found to be 15.6%.
Turning to `O=C(NC1(C(F)(F)F)N=C2SCCN2C1=O)c1ccco1` (stereo not shown), the “hERG current change (%, negative = inhibition) at 1uM” value turned out to be 5.46%.
Then `CN(C(=O)CSc1nnc(COc2ccccc2F)n1N)C1CCCCC1`, with 7.85%.
Turning to `COc1ccc(C)cc1NS(=O)(=O)c1ccc2c(c1)CCN2C(C)=O`, the “hERG current change (%, negative = inhibition) at 1uM” value is 9.16%.
For the compound `CCOC(=O)c1c(NC(=O)Cc2ccccc2)sc2c1CCN(C)C2.Cl`, the “hERG current change (%, negative = inhibition) at 1uM” value is -19.2%.
As for `CC(C)CC(=O)Nc1ccc2c(c1)OCO2`, the “hERG current change (%, negative = inhibition) at 1uM” value was found to be 14.6%.
As for `Br.CCOC(=O)Cn1c(=N)n(Cc2ccccc2)c2ccccc21`, the “hERG current change (%, negative = inhibition) at 1uM” value is recorded as -13.2%.
To `COc1ccccc1-n1c(/C=C/c2ccc(O)cc2)nc2ccccc2c1=O` belongs 13%; to `COc1ccc(OC)c(NC(=O)C2C3C=CC(C3)C2C(=O)NCc2cccnc2)c1` (stereo not shown), 11.4%; to `COCCn1c(SCC(=O)NCc2ccco2)nc2cccnc21`, 17.6%.
As for `CN1CCN(c2sc(S(C)(=O)=O)nc2S(=O)(=O)c2ccc(Cl)cc2)CC1`, the “hERG current change (%, negative = inhibition) at 1uM” value was 4.58%.
On to `O=C(O)c1ccccc1C(=O)Nc1ccc(S(=O)(=O)Nc2ccc(F)cc2)cc1`, for which the “hERG current change (%, negative = inhibition) at 1uM” value worked out at 16.5%.
On to `CCN(CC)S(=O)(=O)c1ccc(N2CC(C(=O)NCCC3=CCCCC3)CC2=O)cc1` (stereo not shown), for which the “hERG current change (%, negative = inhibition) at 1uM” value came to 6.97%.
To `Cc1ccc(C(=O)N2CCOCC2)cc1[N+](=O)[O-]` belongs 12.7%; to `CCOc1ccc(NC(=O)CCN2CCN(S(=O)(=O)c3cc(Cl)ccc3OC)CC2)cc1`, 6.07%; to `C=CCc1ccccc1OCC(O)CNC(=O)c1ccccc1C(=O)O` (stereo not shown), 11.4%.
As to `NS(=O)(=O)c1ccc2nc(NC(=O)C3CCCO3)sc2c1` (stereo not shown), the “hERG current change (%, negative = inhibition) at 1uM” value was found to be 11.5%.
Then `Cc1cccc(C)c1Nc1nnc(SCC(=O)Nc2ncc(C(F)(F)F)cc2Cl)s1`, with 1.78%; and `Cc1cc(Cl)c(OCCCSc2nc(C)cc(=O)[nH]2)c(Br)c1`, with -7.47%; and `Cl.NS(=O)(=O)c1ccc(CCNCc2cc(Br)ccc2OCc2ccccc2F)cc1`, with -37.4%.
For `Nc1n[nH]c(-c2ccccc2)c1-c1ccccc1`, the “hERG current change (%, negative = inhibition) at 1uM” value was 0.625%.
Regarding `O=C(NCC1CCCO1)c1ccccc1-c1nc(-c2ccccc2Cl)no1` (stereo not shown), the “hERG current change (%, negative = inhibition) at 1uM” value was found to be 7.26%.
To `O=C(CNC(=O)C1COc2ccccc2O1)N/N=C/c1cc(Br)c(O)c(Br)c1` (stereo not shown) belongs 9.48%; to `Cc1ccc(NC(=S)NCC(C)C)cc1`, 13.7%.
On to `CC(=O)c1cccc(NC(=S)N2CCN(S(C)(=O)=O)CC2)c1`, for which the “hERG current change (%, negative = inhibition) at 1uM” value is 12.8%.
To `Cc1nc(SCC(=O)Nc2ccc(N3CCOCC3)cc2)nc(C)c1C` belongs 3.35%; to `Cc1cccnc1NC(=O)c1ccc(Cl)c(S(=O)(=O)N2CCCCC2)c1`, -0.63%.
To `O=C(CN1CCCC1)Nc1cccc(Cl)c1Cl` belongs 13%; to `Cc1[nH]n(-c2ccccc2)c(=O)c1-c1ccccc1`, 2.64%.
With `CC(C)(C)C1=Nn2c(nnc2-c2ccccn2)SC1`, the “hERG current change (%, negative = inhibition) at 1uM” value amounted to 0.753%.
Then `CCOC(=O)C1CCN(S(=O)(=O)c2cccc(-c3cn4cc(Cl)ccc4n3)c2)CC1`, with -17.9%.
To `Cc1cc(C)n(CC(=O)NC2CCCc3c2cnn3-c2ccc(C)c(C)c2)n1` (stereo not shown) belongs 1.12%.
For `CCOCC(=O)Nc1ccc(S(=O)(=O)NCC2CCCO2)cc1` (stereo not shown), the “hERG current change (%, negative = inhibition) at 1uM” value amounted to 15.5%.
With `CCC1(CC)NC(=O)N(CC(=O)OCC(=O)NC(=O)c2ccccc2)C1=O`, the “hERG current change (%, negative = inhibition) at 1uM” value is listed as 8.15%.

For the origin of these results see PMC4336329 (PLoS ONE, 2015).
